Measured values published in PMC4336329 (PLoS ONE, 2015).
In all, about 310,000 compounds went through this assay and about 2,200 (0.71%) showed an effect of 50% or more. Effects have a minus sign here. This is one part of the list.

Molecular target: human ether-à-go-go-related gene (hERG) potassium channel (human, UniProt Q12809)
Experiment: primary screen, population patch clamp on CHO cells stably expressing hERG

human ether-à-go-go-related gene (hERG) potassium channel, sequence (Q12809 whole entry, looked up): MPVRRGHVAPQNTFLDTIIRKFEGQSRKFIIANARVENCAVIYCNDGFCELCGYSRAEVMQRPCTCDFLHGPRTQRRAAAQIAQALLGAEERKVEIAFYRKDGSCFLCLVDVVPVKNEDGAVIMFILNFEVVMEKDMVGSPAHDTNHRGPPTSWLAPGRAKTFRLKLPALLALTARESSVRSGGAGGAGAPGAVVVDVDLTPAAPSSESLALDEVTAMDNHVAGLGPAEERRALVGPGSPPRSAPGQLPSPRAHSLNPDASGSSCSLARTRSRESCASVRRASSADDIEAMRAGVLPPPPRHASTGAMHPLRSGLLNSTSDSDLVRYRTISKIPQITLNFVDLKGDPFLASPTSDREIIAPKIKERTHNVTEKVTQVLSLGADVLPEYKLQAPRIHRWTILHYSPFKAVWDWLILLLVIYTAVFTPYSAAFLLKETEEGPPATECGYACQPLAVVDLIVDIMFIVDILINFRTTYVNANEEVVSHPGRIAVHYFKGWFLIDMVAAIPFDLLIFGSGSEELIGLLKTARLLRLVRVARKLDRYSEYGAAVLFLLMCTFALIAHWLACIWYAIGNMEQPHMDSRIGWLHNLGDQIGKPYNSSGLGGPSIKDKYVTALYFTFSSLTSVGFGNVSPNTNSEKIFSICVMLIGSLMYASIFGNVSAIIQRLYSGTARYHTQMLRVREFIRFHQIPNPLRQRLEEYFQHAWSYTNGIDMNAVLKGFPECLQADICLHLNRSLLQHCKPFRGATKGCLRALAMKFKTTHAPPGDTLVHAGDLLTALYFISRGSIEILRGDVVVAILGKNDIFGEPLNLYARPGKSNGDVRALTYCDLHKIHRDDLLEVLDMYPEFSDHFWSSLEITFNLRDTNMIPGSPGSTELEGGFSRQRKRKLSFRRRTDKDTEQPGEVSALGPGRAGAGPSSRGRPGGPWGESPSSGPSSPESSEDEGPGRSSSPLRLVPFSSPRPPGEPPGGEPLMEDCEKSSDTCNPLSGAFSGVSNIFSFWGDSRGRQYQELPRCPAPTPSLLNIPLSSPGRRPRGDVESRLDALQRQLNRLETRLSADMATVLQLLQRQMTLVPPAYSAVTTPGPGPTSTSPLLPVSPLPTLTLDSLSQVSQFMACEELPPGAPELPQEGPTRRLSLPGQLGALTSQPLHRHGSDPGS

In order of falling “hERG current change (%, negative = inhibition) at 1uM” value:
1. COc1ccc(Cl)cc1NC(=O)CN1c2ccccc2CC1C (stereo not shown)  18.5%
2. C/C(CCC12CC3CC(CC(C3)C1)C2)=N\NC(N)=S  18.2%
3. CCOP(=O)(OCC)c1nc(-c2ccccc2Cl)oc1N1CCOCC1  17.2%
4. COC(=O)c1c(NC(=O)C2(C)Cc3ccccc3C(=O)O2)sc2c1CCCC2 (stereo not shown)  16.2%
5. COc1ccccc1C(C)Nc1ccc(S(=O)(=O)N2CCN(C)CC2)cc1[N+](=O)[O-] (stereo not shown)  13.5%
6. c1ccc(-n2c(SCC3CCCCO3)nnc2-c2cnccn2)cc1 (stereo not shown)  13.3%
7. Cc1cc(NC(=O)/C=C\C(=O)O)c([N+](=O)[O-])cc1C  13.1%
8. COc1ccc(NC(=O)CN2CCN(c3c(C)cc(C)cc3C)CC2)cc1  12.7%
9. CCOC(=O)Nc1ccc([N+](=O)[O-])cc1C  12.3%
10. CCCn1nc(NC(=O)CC)c2cc3cccc(C)c3nc21  11.7%
11. COc1cc(/C=C(\C#N)c2nc3ccccc3[nH]2)cc(Br)c1OCc1ccccc1  11.2%
12. COCCSc1ccccc1C(=O)Nc1cc(C)ccn1  11%
13. CC1CCCN(C(=O)C(Cc2ccccc2)n2cccc2)C1 (stereo not shown)  10.8%
14. CCNc1nc(SCC(=O)Nc2ccc(Cl)c(Cl)c2)nc(N2CCOCC2)n1  10.5%
15. Cc1cc(NC(=O)c2ccc3c(c2)OCCO3)no1  10.2%
16. CCOc1ccc(N2CC(C(=O)Nc3ccccc3F)CC2=O)cc1 (stereo not shown)  9.75%
17. COc1ccc(NC(=O)NNC(=O)CCC(=O)Nc2ccccc2Cl)cc1  9.56%
18. Cc1ccc2c(c1)CCCN2N=O  9.51%
19. Cc1nc(-c2cccnc2)sc1C(N)=O  9.5%
20. CCCn1c(SCC(=O)Nc2cccc(F)c2)nc(O)cc1=O  9.12%
21. O=C1N=C(N2CCOCC2)S/C1=C/c1ccc(-c2ccccc2Cl)o1  8.95%
22. O=C(CSC1=NCCS1)Nc1ccccc1F  8.83%
23. CN(C(=O)c1cccc(NC(=O)Cc2ccccc2)c1)c1ccccc1  8.74%
24. CCc1ccc(N(CC(=O)Nc2ccc(NC(C)=O)cc2)S(=O)(=O)c2ccccc2)cc1  8.39%
25. CC(c1ccco1)N(C(=O)C12CC3CC(CC(C)(C3)C1)C2)c1ccccn1 (stereo not shown)  8.34%
26. Cc1ccc(S(=O)(=O)NC2=NCN(CCOC(=O)c3ccc([N+](=O)[O-])cc3)CN2)cc1  8.29%
27. CCOc1cc(C#N)c(NC(=O)c2ccnn2C)cc1OCC  8.07%
28. Oc1ccc(/C=N/n2c(-c3ccco3)csc2=Nc2cccnc2)c(O)c1  7.69%
29. CCOc1ccc(N=Nc2cc(C(C)C)ccc2O)cc1  7.08%
30. O=C(NC(=S)NC1CCSC1=O)c1ccccc1Cl (stereo not shown)  7.03%
31. O=C(Nc1ccc(N2CCOCC2)cc1)c1cn2ccccc2n1  6.95%
32. CCCCC(=O)OCC(=O)c1ccc(OCC)cc1  6.76%
33. Cc1ccccc1C(=O)NCCN1CCOCC1.Cl  6.1%
34. CC(C)(C)SCCNC(=O)CN(c1ccccc1)S(=O)(=O)c1ccccc1  6.08%
35. COc1c(Cl)ccc(Cl)c1C(=O)NC(=O)Nc1nc(C)cc(C)n1  5.87%
36. COc1cc(NC(=O)c2ccnnc2)cc(C(=O)Nc2cccc(C(F)(F)F)c2)c1  5.61%
37. CCOC(=O)c1c(-n2cccc2)sc2c1CCCC2=O  5.16%
38. COc1ccc(/C=N/NC(=O)CNC(=O)/C=C/c2ccco2)cc1OC  4.97%
39. CC(C)=C1SC(N2CCN(c3cccc(C(F)(F)F)c3)CC2)=NC1=O  4.27%
40. O=C(NCc1ccco1)c1cccnc1Cl  3.31%
41. COC(=O)COc1nsnc1N1CCOCC1  3.27%
42. C=CCOC(=O)C1=C(C)NC(C)=C(C(=O)OCC=C)C1c1cccs1  2.58%
43. CN(Cc1ccco1)C(=O)c1ccc(CNS(=O)(=O)c2ccc3c(c2)C(C)(C)C(=O)N3C)cc1  2.46%
44. COc1cc(/C=N/N2C(=O)c3ccccc3NC2(C)c2cccc([N+](=O)[O-])c2)cc(Br)c1O (stereo not shown)  2.17%
45. COc1c(C)cc(C(=O)C2CCCN(Cc3c(C)n(C)n(-c4ccccc4)c3=O)C2)cc1C (stereo not shown)  1.73%
46. CC(=O)Nc1cccc(C(=O)Nc2nc(C)cs2)c1  1.1%
47. CCOc1cc(CNC2CCCC2)c(Cl)cc1OCC(=O)Nc1ccccc1  0.521%
48. CCOC(=O)c1cc(C#N)c(SCC(=O)c2cc(C#N)c(SC)nc2C)[nH]c1=O  0.0865%
49. O=C(Nc1ccc(F)cc1)OCCN1CCN(Cc2ccccc2)CCC1=O  -0.713%
50. Cn1cc(Cl)c(C(=O)Nc2cnn(Cc3ccc(F)cc3)c2)n1  -3.91%
51. COc1ccc(C2/C(=C(/O)c3ccccc3)C(=O)C(=O)N2CC(C)O)c(OC)c1 (stereo not shown)  -5.36%
52. Cc1ccc(C(=O)NCCc2csc(C)n2)cc1  -5.77%
53. CCOC(=O)C(C)CC(C)C(=O)N1CCOCCN(C(=O)C(C)CC(C)C(=O)OCC)CCOCC1 (stereo not shown)  -6.34%
54. Cn1c(=O)c2c(ncn2CC(O)CNc2ccc(Br)cc2)n(C)c1=O (stereo not shown)  -7.26%
55. Cc1ccc(/C=C2/Sc3ccc(C(=O)NCCN4CCOCC4)cc3NC2=O)cc1  -13.2%
56. CCN(CC)CCn1c(NS(=O)(=O)c2ccc(C)cc2)nc2ccccc21  -17.8%
57. Cc1ccc(NC(=S)N(CCCN2CCC(C)CC2)Cc2ccco2)cc1C  -25.5%
58. COc1ccccc1N1CCN(Cc2nc(N)nc(Nc3ccccc3)n2)CC1  -33.8%
